From PubChem BioAssay AID588591 (National Center for Advancing Translational Sciences (NCATS), 2011)
Hit rate of the full screen: of about 390,000 compounds, about 4,700 (1.2%) were called active. Inconclusive results, whose numbers are uncertain, are shown with a selection of clear calls. Calls follow the shape of the dose curve; as a rule, active = well fitted inhibition curve with a large enough effect; inconclusive = small, poorly fitted or top-dose-only effect, or another doubt; inactive = no such curve, though single readings can be large or run the other way. A potency beside an inconclusive call is a rough fit, not a confirmed value.

The molecules below were run against DNA polymerase eta (Homo sapiens) (UniProt Q9Y253) (assay: qHTS for Inhibitors of Polymerase Eta). Details: recombinant Pol eta, fluorescent DNA replication assay; series mostly up to 114 µM; activity change, negative = inhibition: at the top concentration.
How it was run: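 Pol eta (10 nM) was preincubated with compounds for 15 min at room temperature, after which fluorescent replication substrate (50 nM final) was added to start the reaction. Fluorescence was read kinetically at 0 and 10 min.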
% is scaled to controls: 0 for no effect and ±100 for the full control effect; potency is read from the fitted curve at half-maximal effect; tags tell the direction and shape of the fitted curve.

UniProt Q9Y253, sequence (Q9Y253 whole entry, looked up): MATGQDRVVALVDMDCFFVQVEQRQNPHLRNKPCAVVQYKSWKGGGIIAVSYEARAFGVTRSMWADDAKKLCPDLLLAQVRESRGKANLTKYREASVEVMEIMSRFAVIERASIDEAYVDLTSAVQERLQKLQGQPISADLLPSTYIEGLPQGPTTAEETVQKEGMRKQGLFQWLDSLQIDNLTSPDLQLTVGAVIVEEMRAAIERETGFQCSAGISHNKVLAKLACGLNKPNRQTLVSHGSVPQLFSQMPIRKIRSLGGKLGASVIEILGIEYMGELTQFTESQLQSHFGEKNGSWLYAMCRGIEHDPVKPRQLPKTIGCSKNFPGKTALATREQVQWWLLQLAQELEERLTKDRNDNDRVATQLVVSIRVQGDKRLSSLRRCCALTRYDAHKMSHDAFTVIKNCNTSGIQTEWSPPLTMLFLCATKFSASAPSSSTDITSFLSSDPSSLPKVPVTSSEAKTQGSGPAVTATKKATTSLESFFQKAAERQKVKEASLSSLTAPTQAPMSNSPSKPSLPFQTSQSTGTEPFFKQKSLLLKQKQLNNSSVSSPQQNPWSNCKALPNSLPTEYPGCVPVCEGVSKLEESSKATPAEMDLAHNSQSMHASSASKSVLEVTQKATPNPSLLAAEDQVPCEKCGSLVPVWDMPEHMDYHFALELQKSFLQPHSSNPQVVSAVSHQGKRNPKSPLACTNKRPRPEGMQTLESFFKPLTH

Compound	activity change, negative = inhibition	Potency
CC(C)(Oc1ccc(Cl)cc1)C(=O)OCC(=O)NCCc1ccccc1	inactive: -24%	
CC(C)(c1cc(Br)c(O)c(Br)c1)c1cc(Br)c(O)c(Br)c1		inconclusive: 89.1 µM [inhibitor, single point]
O=C(OCn1ncc(Cl)c(Cl)c1=O)c1ccc(C(F)(F)F)cc1		inconclusive: 12.6 µM [inhibitor, partial curve, poor fit]
COc1cccc(-c2cc(C(=O)N3CCN(Cc4ccc5c(c4)OCO5)CC3)on2)c1		inconclusive: 100 µM [inhibitor, partial curve, poor fit]
O=C(COC(=O)c1ccc(S(=O)(=O)NCc2ccco2)cc1)Nc1ccccc1OC(F)F		inconclusive: 25.1 µM [inhibitor, single point]
COc1cc(NC(=O)COC(=O)/C=C/c2ccc(Cl)cc2Cl)cc(OC)c1		inconclusive: 79.4 µM [inhibitor, partial curve, poor fit]
CC(C)c1nc2oc3c(NCC4CCCO4)ncnc3c2c2c1CCC2 (stereo not given)		inconclusive: 31.6 µM [inhibitor, single point]
COc1cccc(CNC(=O)C2CCN(Cc3cc4ccccc4n3Cc3ccc(C)cc3)CC2)c1	inactive: -23.5%	
CCOC(=O)c1ccc(COc2nc3ccccc3nc2-c2ccccc2NC(C)=O)o1		inconclusive: 17.8 µM [inhibitor, full curve, poor fit]
N#Cc1nc(COc2ccc(F)cc2)oc1N1CCN(Cc2ccccc2)CC1		inconclusive: 50.1 µM [inhibitor, partial curve, poor fit]
CCNC(=O)/C(C#N)=C/c1c(N(Cc2ccccc2)Cc2ccccc2)nc2ccccn2c1=O		inconclusive: 79.4 µM [inhibitor, partial curve, poor fit]
O=C(COC(=O)CCN1C(=O)/C(=C\C=C\c2ccccc2)SC1=S)Nc1cc(F)ccc1F		active: 31.6 µM
COC(=O)C1=C(C)N(Cc2ccccc2)C(=NCCc2c[nH]c3ccccc23)N[C@H]1c1cccc(C(F)(F)F)c1		inconclusive: 79.4 µM [inhibitor, partial curve, poor fit]
CC(=O)Nc1nc(C)c(-c2csc(Nc3ccc(O)cc3)n2)s1		inconclusive: 100 µM [inhibitor, single point]
S=c1[nH]nc(-c2cc(-c3ccco3)[nH]n2)n1-c1ccccc1Cl		active: 31.6 µM
CCOC(=O)c1cnc(-n2[nH]c(C)c(Cc3ccccc3)c2=O)[nH]c1=O		inconclusive: 5.01 µM [inhibitor, full curve, poor fit]
Cc1ccc(C(C)C)c(OCC(=O)NN=C2CCCCCCC2)c1		inconclusive: 14.1 µM [inhibitor, partial curve, poor fit]
Cc1nnc(SCC(=O)Nc2sc3c(c2C#N)CCCC3)[nH]c1=O		inconclusive: 22.4 µM [inhibitor, partial curve, poor fit]
O=C(O)c1ccc(NC2OC[C@@H](O)[C@H](O)[C@H]2O)cc1 (stereo not given in full)		inconclusive: 100 µM [inhibitor, partial curve, poor fit]
CCCSc1nc(-c2ccc(OC)cc2)cc(-c2ccccc2OC)c1C#N	inactive: -19%	

Compound	activity change, negative = inhibition	Potency
CC(=O)c1ccc(OCC(O)CN2CCN(CCN3C(=O)c4cccc5cccc(c45)C3=O)CC2)cc1 (stereo not given)		inconclusive: 35.5 µM [inhibitor, partial curve, poor fit]
COc1cc(CN(C)C(C)C(=O)Nc2ccc([N+](=O)[O-])cc2Cl)ccc1OC(F)F (stereo not given)		inconclusive: 89.1 µM [inhibitor, partial curve, poor fit]
O=C(OCC(=O)N1CCCC1)c1ccccc1OCc1ccccc1		inconclusive: 44.7 µM [inhibitor, partial curve, poor fit]
Cc1cccc(N2C(=O)c3ccc(C(=O)Nc4ccccn4)cc3C2=O)c1	inactive: -14.6%	
O=C(/C=C/c1cn(CC(O)CN2CCCCCC2)c2ccccc12)c1cccs1 (stereo not given)		inconclusive: 79.4 µM [inhibitor, partial curve, poor fit]
O=C(Nc1nccs1)c1cc(-c2ccccn2)nc2c(Cl)cccc12		inconclusive: 14.1 µM [inhibitor, full curve, poor fit]
CC(=O)C[C@H](O)CC(=O)[C@H]1OC(=O)[C@H](C)C/C=C\Cc2ccccc21		inconclusive: 89.1 µM [inhibitor, partial curve, poor fit]
CC1=C(C(=O)OCc2ccccc2)C(c2cccs2)NC(=O)N1CCCC(=O)O (stereo not given)	inactive: -5.21%	
CCOC(=O)c1c(NC(=O)COC(=O)c2ccccn2)sc2c1CCC2		inconclusive: 39.8 µM [inhibitor, partial curve, poor fit]
CN(C)CCN(Cc1ccco1)C(=O)c1cc2c(Cl)nc3ccccc3c2s1		inconclusive: 39.8 µM [inhibitor, partial curve, poor fit]
CCOC(=O)c1c(N)n(C2CC(C)(C)NC(C)(C)C2)c2nc3ccccc3nc12	inactive: -6.29%	
COc1ccc(CCCc2nnc(SCC(=O)Nc3ccc(F)cc3)o2)cc1C	inactive: -10.8%	
CS(=O)(=O)Nc1ccc(C(=O)NCCSCc2ccco2)cc1		inconclusive: 7.94 µM [inhibitor, partial curve, poor fit]
Cc1ccc(Cn2c(/C=C/c3ccco3)nc3ccccc32)cc1	inactive: -16.7%	
Cn1cc(/C=C2\SC(=S)N(NC(=O)c3cccc(Cl)c3)C2=O)c2ccccc21	inactive: 13.8%	
CCOc1ccccc1NC(=O)CCS(=O)(=O)c1ccc(Br)cc1		active: 17.8 µM
COc1ccccc1C=C1SC(=S)NC1=O		inconclusive: 14.1 µM [inhibitor, partial curve]
COc1ccc(S(=O)(=O)NCCSC(C)(C)C)c(Cl)c1Cl		inconclusive: 89.1 µM [inhibitor, partial curve, poor fit]
COc1ccc(-c2cc(C(=O)NC(Cc3c[nH]c4ccccc34)C(=O)O)c(C)o2)cc1OC (stereo not given)		inconclusive: 31.6 µM [inhibitor, single point]
O=C(CSc1nc2ccsc2c(=O)n1Cc1ccc(C(=O)O)cc1)NCc1ccco1		active: 44.7 µM
